According to paper PMC4336329 (PLoS ONE, 2015):
Screen size: about 310,000 compounds; about 2,200 (0.71%) showed an effect of 50% or more. Effects have a minus sign here. The list shows a part of the results.

target: human ether-à-go-go-related gene (hERG) potassium channel (human, UniProt Q12809); assay: primary screen, population patch clamp on CHO cells stably expressing hERG
Sequence (Q12809 whole entry, looked up): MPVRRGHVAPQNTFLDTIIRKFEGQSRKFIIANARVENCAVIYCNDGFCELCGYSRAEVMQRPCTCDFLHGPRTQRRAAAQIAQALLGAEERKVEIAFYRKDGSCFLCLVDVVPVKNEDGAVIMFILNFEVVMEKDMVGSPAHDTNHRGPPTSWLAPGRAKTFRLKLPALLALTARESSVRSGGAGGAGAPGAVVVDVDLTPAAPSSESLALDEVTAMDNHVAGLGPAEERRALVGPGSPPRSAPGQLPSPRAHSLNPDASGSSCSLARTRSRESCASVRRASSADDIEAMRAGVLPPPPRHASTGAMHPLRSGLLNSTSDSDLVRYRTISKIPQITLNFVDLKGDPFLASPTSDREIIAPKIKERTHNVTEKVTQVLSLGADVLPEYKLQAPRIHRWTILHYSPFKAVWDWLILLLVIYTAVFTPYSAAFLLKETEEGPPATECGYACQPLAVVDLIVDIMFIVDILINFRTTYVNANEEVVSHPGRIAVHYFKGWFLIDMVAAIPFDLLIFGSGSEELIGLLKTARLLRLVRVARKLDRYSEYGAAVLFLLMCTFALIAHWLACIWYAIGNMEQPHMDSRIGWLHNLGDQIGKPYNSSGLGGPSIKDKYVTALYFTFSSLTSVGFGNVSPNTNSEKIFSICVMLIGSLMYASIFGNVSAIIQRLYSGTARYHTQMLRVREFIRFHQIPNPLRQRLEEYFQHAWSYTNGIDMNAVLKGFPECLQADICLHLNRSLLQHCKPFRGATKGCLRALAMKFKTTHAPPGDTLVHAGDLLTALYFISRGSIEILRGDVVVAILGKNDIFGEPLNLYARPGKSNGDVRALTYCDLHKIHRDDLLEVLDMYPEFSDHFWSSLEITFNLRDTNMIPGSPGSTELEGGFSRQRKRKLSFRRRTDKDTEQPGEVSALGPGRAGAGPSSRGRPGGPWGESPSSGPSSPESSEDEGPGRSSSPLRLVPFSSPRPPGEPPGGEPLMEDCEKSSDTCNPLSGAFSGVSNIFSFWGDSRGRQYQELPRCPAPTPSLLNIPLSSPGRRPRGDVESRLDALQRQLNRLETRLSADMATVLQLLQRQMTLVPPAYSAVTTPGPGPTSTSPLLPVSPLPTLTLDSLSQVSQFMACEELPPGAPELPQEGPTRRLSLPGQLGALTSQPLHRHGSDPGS

Compound	hERG current change (%, negative = inhibition) at 1uM
CCOc1ccc(CC(=N)C2=C(O)CC(C)(C)CC2=O)cc1OCC	3.14%
O=C(CNS(=O)(=O)c1c(Cl)cccc1Cl)OCC(=O)N1CCN(c2ccccc2)CC1	-3.73%
COCCN(C(=O)CCc1nnc(Cc2c[nH]c3ccccc23)o1)C(C)C	8.01%
O=C(c1[nH]nc2c1CCc1ccccc1-2)N1CCN(Cc2ccc3c(c2)OCO3)CC1	4.73%
c1ccc(-c2csc3ncnc(N4CCN(Cc5ccc6c(c5)OCO6)CC4)c23)cc1	-34.4%
COc1cc(NC(=O)c2cc([N+](=O)[O-])ccc2N2CCOCC2)ccc1NC(=O)c1ccco1	13.9%
COc1ccc(Br)cc1C(=O)Nc1ccc(C(=O)O)cc1	11.3%
Cc1cc2oc(=O)cc(-c3cc4ccccc4o3)c2cc1OC(=O)N(C)C	13.9%
Fc1ccccc1-c1n[nH]c(=S)n1CC1CCCO1 (stereo not shown)	8.95%
O=C(OCc1cncs1)c1ccccc1Cl	13.9%
CCC(Sc1nc(-c2ccccc2)cc(=O)[nH]1)C(=O)O (stereo not shown)	7.62%
CCOc1ccccc1N1CC(O)=C(c2nc3ccccc3s2)C1=N	5.48%
CN(C1CCS(=O)(=O)C1)S(=O)(=O)c1ccccc1 (stereo not shown)	7.41%
COc1ccccc1NC(=O)CSc1nc2ccccc2c(=O)n1CC1CCCO1 (stereo not shown)	11.9%
Fc1ccc(CSc2nc3ccccc3[nH]2)cc1	5.01%
Cc1ccc(CN2CC(C(=O)N3CC(C)CC(C)C3)CC2=O)cc1 (stereo not shown)	1.46%
Cc1ccc(Nc2ncnc(-n3cccc3)n2)cc1Cl	10.7%
Cc1[nH]nc(-c2ccc(O)cc2O)c1Oc1ccccc1	-1.62%
FC(F)(F)c1ccc(N2CCN(c3cc(-c4ccccc4)nc4ncnn34)CC2)nc1	-15.2%
O=C(O)c1ccccc1-n1cccc1C(=O)O	12.4%
CC1C(=O)Nc2ccc(S(=O)(=O)N3CCc4ccccc4C3)cc2NC1=O (stereo not shown)	12.5%
Cc1ccc(S(=O)(=O)NCCc2cccs2)cc1	5.09%

Compound	hERG current change (%, negative = inhibition) at 1uM
COc1ccc(NC(=O)c2cccc(C(=O)Nc3ccc(OC)cc3)n2)cc1	6.45%
Cc1ccc(C(=O)Nc2cc3ccccc3oc2=O)cc1	8.27%
O=C1CCCCN1CC(=O)N1CCCC(Nc2ccc(F)c(F)c2)C1 (stereo not shown)	12.4%
Cc1sc(NC(=O)CCCC(=O)O)c(C(N)=O)c1-c1ccccc1	12.8%
Cc1ccc(NC(=O)C2CCCN2S(=O)(=O)c2ccc3c(c2)n(C)c(=O)c(=O)n3C)cc1C (stereo not shown)	8.33%
O=C(Cn1nc(-c2ccc3c(c2)OCCO3)ccc1=O)Nc1cccc(NC(=O)c2ccccn2)c1	8.06%
Oc1ccc2ccccc2c1CNc1ccc(Br)cc1	14.4%
O=C(Cc1c(F)cccc1Cl)Nc1ccc(S(=O)(=O)N2CCCC2)cc1	11.8%
Cc1cc(C)c(OCC(=O)N(Cc2ccc(N(C)C)cc2)C2CCS(=O)(=O)C2)c(C)c1 (stereo not shown)	4.02%
O=C(COc1ccccc1)N1CCN(c2ncccn2)CC1	10.1%
Cc1cc(C)c(S(=O)(=O)n2ccc(-c3ccc(OCCN(C)c4ccccn4)cc3)n2)c(C)c1	14%
COc1ccc(CCNC(=O)c2ccc3c(c2)NC(=O)C(N2CCOCC2)S3)cc1OC (stereo not shown)	11.3%
O=C(CC1CCCCC1)NCCS(=O)(=O)N1CCN(c2ccccc2)CC1	18.9%
CS(=O)(=O)N(CC(=O)Nc1cc(Cl)ccc1Cl)c1ccccc1Cl	8.34%
CCOC(=O)CN1C(=O)S/C(=C/c2ccc3c(c2)n(C)c(=O)n3C)C1=O	9.23%
O=C(NCc1ccccc1Cl)c1ccc(CS(=O)Cc2ccc(Cl)cc2)o1 (stereo not shown)	-0.612%
Cn1c(=O)n(C)c2cc(NC(=O)c3ccc(F)cc3)ccc21	17%
CN(C)S(=O)(=O)c1cccc2c1C(=O)c1ccccc1C2=O	3.58%
Cc1ccc(-c2n[nH]c(=O)c3ccccc23)cc1S(=O)(=O)N(C)C	14%
Cn1c2ccccc2c2nnc(SCC(=O)Nc3cccc(C(=O)O)c3)nc21	11.8%
O=C(NCc1ccc(F)cc1)C1(S(=O)(=O)c2ccc(Cl)cc2)CC1	-2.31%
Cc1nn(C)c(C)c1CNC(=O)c1cc2n(n1)C(C(F)(F)F)CC(c1cccs1)N2 (stereo not shown)	15%

Compound	hERG current change (%, negative = inhibition) at 1uM
Cn1c(SCC(=O)NCc2ccc(F)cc2)nc2ccccc21	-1.34%
CCC1OC(=O)C(C)C(OC2C[C@@](C)(OC)C(O)C(C)O2)C(C)C(O[C@@H]2OC(C)CC(N(C)C)C2O)[C@](C)(O)CC(C)C(=NOCOCCOC)C(C)C(O)[C@]1(C)O (stereo partly shown)	16.5%
O=C(c1ccc(F)cc1)c1cc2ccccc2o1	6.63%
Cc1ccc(C(=O)Nc2c3c(nn2C(C)(C)C)CS(=O)(=O)C3)cc1C	1.78%
COc1ccc(C(=O)NCCN2C(=O)S/C(=C\c3cccnc3)C2=O)cc1[N+](=O)[O-]	-46.6%
CCn1cc(C(=O)Nc2ccc(OC)c(S(=O)(=O)N3CCCCC3)c2)c(=O)c2ccc(C)nc21	6.44%
O=C1C2=C(Nc3ccccc3SC2c2ccco2)c2ccccc21 (stereo not shown)	3.56%
O=C(c1cc2ccccc2o1)N1CCN(S(=O)(=O)c2ccc(Cl)s2)CC1	15.8%
O=C(N/N=C/c1ccc([N+](=O)[O-])cc1)C(=O)N1CCCC1	18.5%
COCC1CCN(C(=O)c2cc(COc3cncc(Cl)c3)on2)C1 (stereo not shown)	17.5%
CC(C)Cn1c(=O)c2ccccc2n2c(CCC(=O)O)nnc12	17.9%
COc1ccc(-n2nnnc2S(=O)(=O)CC(=O)N2CCCCC2)cc1	3.41%
CCC(=NCc1cccnc1)c1c(O)n(C2CCCCC2)c(=O)[nH]c1=O	-23.6%
CCOc1ccc(NC(=O)CSc2nc3[nH]ncc3c(=O)n2-c2ccccc2OC)cc1	12.4%
CN(C)c1nnnn1-c1ccc(OC(F)(F)F)cc1	14.5%
CCOCC(=O)Nc1cccc(-c2nc3cccnc3s2)c1C	7.32%
Cc1cc(C(=O)N/N=C/C=C/c2ccccc2[N+](=O)[O-])c(C)o1	-5.64%
COC(=O)C1=C(C)OC(N)=C(C#N)C1c1ccccc1F (stereo not shown)	1.13%
O=C(Nc1ccccc1)c1ccc(NCCN2CCOCC2)c(S(=O)(=O)N2CCOCC2)c1	5.62%
Cn1c(=O)n(Cc2ccccc2)c(=O)c2c1nc1n2CCS1	11.2%
